Experimental data: paper PMC7819943, “Rice protein-binding microarrays: a tool to detect cis-acting elements near promoter regions in rice”
The list shows a part of the results.

These sequences were tested against T1, OsWOX13 (Oryza sativa, UniProt Q5QMM3 1-267) (assay: protein-binding microarray (RPBM); PBS, 2% BSA, 51.3 ng/ul salmon testes DNA, 50 uM zinc acetate, 200 nM TF, 25 C, 1 h; high values mean tight binding). Details: protein: recombinant; tags: N-terminal polyhistidine and DsRed monomer fusion (pET32a); label: CyDye5-dUTP incorporated in the synthesized complementary strand; 3' TTTTT single-stranded linker to array surface; dsDNA, one strand shown.
T1 sequence: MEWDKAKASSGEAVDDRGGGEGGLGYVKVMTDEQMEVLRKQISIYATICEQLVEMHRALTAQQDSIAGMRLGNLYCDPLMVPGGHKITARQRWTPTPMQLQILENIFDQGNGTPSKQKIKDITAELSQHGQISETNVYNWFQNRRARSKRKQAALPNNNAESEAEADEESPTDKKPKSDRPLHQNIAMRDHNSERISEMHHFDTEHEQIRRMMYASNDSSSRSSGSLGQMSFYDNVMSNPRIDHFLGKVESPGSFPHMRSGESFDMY
Outline: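 In PBS with 2% BSA, salmon testes DNA and 50 µM zinc acetate, 200 nM protein was incubated on a custom Agilent array at 25 °C for 1 h and then washed off. The array had been made double-stranded by primer extension with Cy5-dUTP and blocked with 2% BSA. The proteins were transcription factors fused N-terminally to polyhistidine and DsRed, expressed in E. coli BL21-CodonPlus and purified on Ni–NTA. The binding signal is per-feature fluorescence intensity (arbitrary units) from an Axon 4000B scanner.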

Going from “GCGCAATTAACAACAATGACGGGCATGCTTGGAGGTGAGCCGGAGTCACCTAGTGCAG” to “AAACAATTACAAATGTTTAGCTGACATACAAGAACTGGACCGGAGTCACCTAGTGCAG”, the binding signal falls from 21000 fluorescence intensity (a.u.) to 3460 fluorescence intensity (a.u.).

First: CAAATGACTTATAATATGAAATAATTAACTTCCAGTGTATCGGAGTCACCTAGTGCAG
Second: GGATGATATGATTAACAGGATGTTATGCAGGCTGTAGATCCGGAGTCACCTAGTGCAG
The binding signal of the first is lower: 8710 fluorescence intensity (a.u.) for the first, 36300 fluorescence intensity (a.u.) for the second.

Going from “CACAGCTAAATTAGCTTATTCGTTGACACTTCCTCTCTTTCGGAGTCACCTAGTGCAG” to “ATTAACAGGATGTTCTTGCACCAACAAGACTGTCATTAGCCGGAGTCACCTAGTGCAG”, the binding signal falls from 11900 fluorescence intensity (a.u.) to 8890 fluorescence intensity (a.u.).

Going from “TAAAATTTATTTGGTTACTGATCTACTCCCTCCGTCTTGACGGAGTCACCTAGTGCAG” to “TAACCACAGTAATTAATCTCAAATTAAAGCCACAGTGCACCGGAGTCACCTAGTGCAG”, the binding signal rises from 3940 fluorescence intensity (a.u.) to 7820 fluorescence intensity (a.u.).

First: TCCCTCCTTACCAAATTGATCATCACGTAATAGAATCTAACGGAGTCACCTAGTGCAG
Second: TATGATTCTAACAGGAATAAGTGTGAAACAGAGGATTACACGGAGTCACCTAGTGCAG
The binding signal of the first is higher: 7460 fluorescence intensity (a.u.) for the first, 3410 fluorescence intensity (a.u.) for the second.

Compared with “ATTTAATTGATCGAACTAAGGCTAAACAACAAGGGAATCACGGAGTCACCTAGTGCAG”, “CATATAATTAGTTAGGTATGTAATCATGGATTGTGAAATACGGAGTCACCTAGTGCAG” is lower in binding signal: 36700 fluorescence intensity (a.u.) for the first, 19100 fluorescence intensity (a.u.) for the second.

Going from “AAATGACAAATAAAATTTGACCGGAGTGATAGTGGTGTGGCGGAGTCACCTAGTGCAG” to “ATCTAATAGACTAATACACAGTCAAGCGCGCGCCGCACGCCGGAGTCACCTAGTGCAG”, the binding signal rises from 6620 fluorescence intensity (a.u.) to 14100 fluorescence intensity (a.u.).

Compared with “CTGTTTTGACAAATTGTTCATCGGTCGCTGCTTCTGTGGACGGAGTCACCTAGTGCAG”, “GGCAAACTTTTGTCAATTAATGTTAATACTGGACTACATTCGGAGTCACCTAGTGCAG” is higher in binding signal: 4590 fluorescence intensity (a.u.) for the first, 14700 fluorescence intensity (a.u.) for the second.

Going from “ACTGGAAGATAGCTAATTAATTAGCTAGCTAAAGCTTCTCCGGAGTCACCTAGTGCAG” to “ATCAACTGATTAGGTTTCTTGTGGTGGAATCAGCCTACCCCGGAGTCACCTAGTGCAG”, the binding signal rises from 15700 fluorescence intensity (a.u.) to 29000 fluorescence intensity (a.u.).

Going from “ATGCGATTTTAATTAACCGTGCAGAATTCTGAATTCCCAACGGAGTCACCTAGTGCAG” to “GCCAACAAGTATATGATTGCGACATTTGTACGGTGACAACCGGAGTCACCTAGTGCAG”, the binding signal falls from 10200 fluorescence intensity (a.u.) to 5310 fluorescence intensity (a.u.).

Compared with “AGACTATTTGGAGAATTAATTGATCACAACTAGACATTCACGGAGTCACCTAGTGCAG”, “CAAATAATAGACTGATTATAATTCTCAATCGGCTAAAACCCGGAGTCACCTAGTGCAG” is higher in binding signal: 16100 fluorescence intensity (a.u.) for the first, 33000 fluorescence intensity (a.u.) for the second.

Compared with “ATCCCGATTAACTGAACATGAAACAAAGCCAATCTCTGGTCGGAGTCACCTAGTGCAG”, “GTTCATTAATTACAAGGTACTAATACCTATTAATATCTCCCGGAGTCACCTAGTGCAG” is higher in binding signal: 9540 fluorescence intensity (a.u.) for the first, 14600 fluorescence intensity (a.u.) for the second.

First: AAATATTAATTACTATATTTTCAATAAACACTCGCATTTACGGAGTCACCTAGTGCAG
Second: CTTATTTTAATTTCAATTTATTTTGTTAGAACTATTTTCACGGAGTCACCTAGTGCAG
The binding signal of the first is lower: 12500 fluorescence intensity (a.u.) for the first, 16000 fluorescence intensity (a.u.) for the second.

Compared with “GAAATAAGTTATAAATAATTAAGATGATGTGGTTTATAACCGGAGTCACCTAGTGCAG”, “TCCATGATTTAATAATGTTGTGCTATAGTAAACATTTGCTCGGAGTCACCTAGTGCAG” is higher in binding signal: 5300 fluorescence intensity (a.u.) for the first, 33900 fluorescence intensity (a.u.) for the second.

Going from “GGCCTAAATTATTACTCCGTATTCTATTGTTAACGCCGTTCGGAGTCACCTAGTGCAG” to “ATTAATTATGTGCTAATAGGTGGTGTTTGAAACTCATGTACGGAGTCACCTAGTGCAG”, the binding signal rises from 9550 fluorescence intensity (a.u.) to 37000 fluorescence intensity (a.u.).

First: AAAATTCAATCTAGCTTTCTAATAGCCCATCTTTGTTTAACGGAGTCACCTAGTGCAG
Second: TGAAGATTGAAGAGGAGGATGGATGGGGCGCAGCGCAATGCGGAGTCACCTAGTGCAG
The binding signal of the first is lower: 5690 ± 65.8 fluorescence intensity (a.u.) for the first, 9110 fluorescence intensity (a.u.) for the second.

First: CTTTGTAAATTAAATTAAAGTGCTCGAAAATTTTATATTTCGGAGTCACCTAGTGCAG
Second: TGCTAACCGTGTAATTGAGCGGACCACCTGTTAGTTTTGGCGGAGTCACCTAGTGCAG
The binding signal of the first is lower: 3160 fluorescence intensity (a.u.) for the first, 11700 fluorescence intensity (a.u.) for the second.

Compared with “CCGGATAATTGTTTTATTGAGTAGCATTGATGAGGTCTTGCGGAGTCACCTAGTGCAG”, “CTCCATCATTGACACGAGCTTGCTGTTAATTTGAGCCCCTCGGAGTCACCTAGTGCAG” is lower in binding signal: 23900 fluorescence intensity (a.u.) for the first, 7920 fluorescence intensity (a.u.) for the second.

Going from “TATATATATATAATTATGCATCCTGGTTAGCAATTAATGTCGGAGTCACCTAGTGCAG” to “GTGTTAATGGGATTGTGAGTATGATGTTGCGGGTAGTGATCGGAGTCACCTAGTGCAG”, the binding signal rises from 3400 fluorescence intensity (a.u.) to 9870 fluorescence intensity (a.u.).

Compared with “ATAAATTAATTTATAGGTAACATTTATATATGTATTCTTACGGAGTCACCTAGTGCAG”, “AGGTGTGATGATAAAATTATTAGTACATGACTCAACCTAACGGAGTCACCTAGTGCAG” is lower in binding signal: 47800 fluorescence intensity (a.u.) for the first, 4500 fluorescence intensity (a.u.) for the second.

First: TCTGATTCAAACATAATTGCCAAAGCATCAAGTTATTGTGCGGAGTCACCTAGTGCAG
Second: AATGTTCGATTTGATTTGAGTTCATTCAACATCTTTTGTCCGGAGTCACCTAGTGCAG
The binding signal of the first is higher: 27500 fluorescence intensity (a.u.) for the first, 4330 fluorescence intensity (a.u.) for the second.

Going from “TGTGATTGAGGGCTACGAATTATAATCTGTAAAGTGCACTCGGAGTCACCTAGTGCAG” to “GTGTTTTGTCTTGATTTGTTCACATGGCACAGTAGTTAGCCGGAGTCACCTAGTGCAG”, the binding signal falls from 45200 fluorescence intensity (a.u.) to 5340 fluorescence intensity (a.u.).

First: TGTTCCGTGATTAAAACAACAACAGCGCACATACGATACACGGAGTCACCTAGTGCAG
Second: CTATTCACTCTATAATTATATATTGCCGATAAAATTCATCCGGAGTCACCTAGTGCAG
The binding signal of the first is higher: 6110 fluorescence intensity (a.u.) for the first, 5460 fluorescence intensity (a.u.) for the second.

Going from “CTACCAGCAGGATGACATTAACCTGTATTTATTTCGTTTTCGGAGTCACCTAGTGCAG” to “AAATCGAACAAATTATTATTGACTTTGATCTGCCGCACTTCGGAGTCACCTAGTGCAG”, the binding signal falls from 3360 fluorescence intensity (a.u.) to 3190 fluorescence intensity (a.u.).

First: CCCTAGACAGATCAGCTTTGGTGTCTTGGTGGTTGTTGTCCGGAGTCACCTAGTGCAG
Second: TTTCGAATTTTAGTAATTTATAATTTGTATTTCTAATTAACGGAGTCACCTAGTGCAG
The binding signal of the first is lower: 5440 fluorescence intensity (a.u.) for the first, 6110 fluorescence intensity (a.u.) for the second.

Compared with “TTTATAAATTGCAAAAGGTTCCTATTTAGTTTGGGCCGAACGGAGTCACCTAGTGCAG”, “TTCCTAATTAGTTACTACCTCCGTTTCATATTATAAAACTCGGAGTCACCTAGTGCAG” is higher in binding signal: 5200 fluorescence intensity (a.u.) for the first, 16800 fluorescence intensity (a.u.) for the second.

Compared with “ACATGGGCCGATAATTGGATCTGAACGATACTCTGAATATCGGAGTCACCTAGTGCAG”, “CATAAATCAATCGAGGCAGAAATATAGCCTGAGTTTCGCTCGGAGTCACCTAGTGCAG” is higher in binding signal: 4720 fluorescence intensity (a.u.) for the first, 9310 fluorescence intensity (a.u.) for the second.
